The source gives no read counts; variants with many changes may rest on few reads.
B1: LINE1-mini (parent)
chain: GGCAGAGCUCAACACAGCGUGGCAAAGUGGCUGUGGCUAGACUGCC

Variants of: B1
Assay: self-cleavage, relative activity (ratio to wild type); higher = more cleavage; in vitro, sequencing; the parent is a self-cleaving ribozyme

Variant | self-cleavage
A6C A14U G17C G27C U28G G35C C45G | 0.12
U20C C42A U43G | 0.02
A6U A14G C15U C23U A25G A39U | 0.3
G1U C8A G21A G27U | 0.1
C10U C13U A16U U34G A39U | 0.03
C10G G19A G36U G40C | 0
A12G A14C C18U G30U C42U | 0.05
A26C G29A G40C | 0.06
C3U A6U G7U A16C G21A | 0.04
C13A G22A A25U A26G G27A C37A C42G C46G | 0.05
G1U G2A A4U A6U G19A G22U | 0.77
C31G C42A U43G | 0.03
C18G C31A G36C | 0.07
C10G C18G G19A | 0.05
A12U G19C G21A U38A | 0
G5U C10U G17U C18A G22A | 0.04
G19U A26C C37G | 0.03
A4G G5A U9C C18U | 0.02
C8G G17C C18U U32A G44C | 0.08
C3A U9C G27U C42U G44A | 0.71
C37A G44C C46U | 0.1
G1U G2U A11U | 0.02
A12C C15A G29U | 0.05
G5U G40U C42G | 0.06

Variant | self-cleavage
C13A U28G U32C | 0.13
C15A A39G C45A | 0.04
C10A C15U C45U | 0.08
G5A A11U A14C G29U G35U | 0.03
C3G C8A U38A | 0.33
G19C U28C G36C | 0.05
A6G C10A C13A U32A | 0.02
C10G G27C A39U | 0.08
G5U C15G U38A | 0.04
C23A A25U A39U | 0.58
G7C C10A U34A C42U | 0.01
U20C G21U U32C C45A | 0.58
U20C U38A C42U | 0.23
G5C A24C U34A C37A | 0.02
G7C C8A G29U C37A | 0.05
G7A A12U G22A C23G | 0.01
G19C U32A G33A C42U G44U | 0.1
G7C C15G C42A G44C C45A | 0.02
A4U A6G A14U A26U | 0.04
U9A G33C U34A | 0.04
G30U A39G C46A | 0.08
C3G G22U C23A A24G U28C | 0.06
C8G C10A G21U C42U C46A | 0.01
C31U U32A C42U | 0.08

Variant | self-cleavage
A26G G33A U38A C46G | 0.03
G1C A4G A16U | 0.01
U9A G19C A26C G33U C45G | 0.16
G19U C31G U34C | 0.03
G1C G21U C37U | 0.01
A4G A12G G19U | 0.01
G5C C18G G21U A24G | 0.03
C15A G19C C23U A24U A25C C31A | 0.11
A4G G29A U32A U38C G40C | 0.04
A6C U38A C42A | 0.07
U9C C13G G17C G21U U32G | 0.01
A4G C8A C23A | 0.06
A4U U32C G35U G36U U38G G44U | 0.03
C3A C8U C37U | 0.45
U20G G27A U28G U43A C45G | 0.01
A6G A24C G40U G44C | 0.02
C10A A14G C18U U28G | 0.01
C10A G19A C46U | 0.05
A11U A16U G17A U20G G27C A39U | 0.01
G2U G7U C13G G19A G36A U38A | 0.02
C3G G22C A39G U43G | 0.06
G5U U20A C46A | 0.04
A24C U28A G29C C45A | 0.76
A16G G33C U43A | 0.02

Variant | self-cleavage
G7A G22U A26U G30A | 0.15
C3G U34C G36C C46G | 0.03
A14U A24C G29U U32C U38C | 0.3
U20A U28G G44C | 0.44
C8G G22A C37G C42A | 0.07
G5C C8A U9A C15A G17C U43A | 0.07
G2C U9A C10A G29U A41C | 0.01
C13G C15U G22C G40A G44U | 0.65
C18U U20C C37G | 0.04
C3G A6U A12G U28C | 1.26
A4U C23U C42U | 0.27
A11G A16U G22U U28G U43A | 0
G2C A4U C8A C31G G40C | 0.17
C18A C23U U32C G33A C45U | 0.03
G17C C23U U38A G40U | 0.09
G19U G22U U43C C45A | 0.02
G2C A16C C18A | 0
C18G G22U G33A C37A U38G | 0
C10G C18G G36A G40C | 0
C18G G33A C46A | 0.03
G5U A24C A41C C45A | 0.03
G1U G2U C45A | 0.27
C13G G17A C18U A25G G29A | 0.44
G21U A39U C42U | 0.69

Variant | self-cleavage
C3A G5A A6C A16U | 0.22
C15G U28G G33U | 0.09
C31A G33C G36U C37A | 0.29
A4C A16C G19U C31A U43C | 0.01
U32C U38G G40A | 0.06
C8G G17A A24C | 0.07
G1A G2C U34A | 0.06
A12C C13U A26U | 0
G1U G7U G19A U28A U32A | 0.05
A25U A26G U32A C46G | 0.05
A4G G30U C42G | 0.36
G5A U20G G44U | 0.03
C10A G17U C18A G40U | 0.04
G1A G2C G19C G22C U28C | 0.03
A16G A24C G30A G35A | 0.11
A4G G5U C42A | 0.11
C10A U20G C31U | 0.02
G1C U20C G29A U38C | 0.18
A4G G17A G33U G44A | 0.04
A6U U32A U38C | 0.02
A12C C13A G29U | 0.02
A4C C8A C15A | 0.26
A12G U32A C37U | 0.15
C8U C13A A41C | 0.21

Variant | self-cleavage
C3G C13A G17A A26C G40A | 0.25
G1U G7U G27C A39U U43C | 0.01
C15U A26G C45G | 0.1
C3A A14G G27A C45G | 0.46
G7C A41C U43A | 0.25
A12C C18A G30U G36C | 0
G7C U20G C42U | 0.05
A6G G22C C46A | 0.08
G5U G33C G35C | 0.04
C3A C15G A39C | 0.05
A6U C8U U20G G44A | 0.05
U9C G33A C37A G40C | 0.01
G1C C8G A14U G17U G22A A26C A39G | 0.01
C10A A16G U32C C42U G44A | 0.01
A4C U9A C18U U28A G33U | 0.09
A14C G19A G29C | 0.38
A6G C10A G27A U28C U38C A39C | 0
A6C C18U G22C | 0.99
G19U U20G G40A | 0.26
A14G C31G C42G | 0.01
A12C U28A C37G U38G | 0.02
G29U C31U G44A | 0.08
G1U A16G G21A U28C C37G U38C | 0.01
A25C G40C C46U | 0.11

Variant | self-cleavage
A26C U38A C46G | 0.06
G1A C13G A14C G27U G33A | 0.04
C18A G29U U43G | 0.03
C3A A14U G27C G33C | 0.1
U9A G27C G40A C42U G44A C45A | 0.03
G1A G7C G27A | 0.37
G5U C8U C13A G19A G30U G35U A41U | 0.13
G17A U20A A39C | 0.14
C3A G21U G22A U28A | 0.11
G1A A4U G7C C8G G21U C31U | 0.14
C18A G19C C31U G40A C45G | 0.02
G21C U32C A41U | 0.22
G2A C13A C18A G21A A24U | 0.05
C3G A16U G35C C46A | 0.05
G21A U34G G35A | 0.05
A11C C15U A24G U28G G33A | 0.02
A16G C18U G22A | 0.37
G1A G5A A12C C13G G19C G22U | 0.02
G2U G30A G35C G36U | 0.04
C8G C15A G36A G44U | 0.1
C8U G29C G35A | 0.08
G7U U9G A16C C18U U20C C37U | 0.08
G7A C8U G21A G35A G36A | 0.7

From the RNAGym collection of RNA variant scans (doi:10.7554/elife.90254)
